PMC5462475, “A conformational switch high-throughput screening assay and allosteric inhibition of the flavivirus NS2B-NS3 protease” (PLoS Pathogens, 2017)

Biological target: T1, DENV2 NS2B-NS3 protease complex (Dengue virus type 2, UniProt P14340)
T1 construct: pairs of primers of 1394F and 1440C for NS2B and 1476F and 1660C for NS3; made in house; host or cells: Escherichia coli Rosetta 2(DE3)
Type: biochemical

[1] = compound 3 μM, protease 150 nM, Abz substrate 25-400 μM

## O=C1C=CC(=NNc2ccc([N+](=O)[O-])cc2Cl)C=C1C(=O)Nc1cccc(Cl)c1 [NSC135618]
[1]
  effect on Km: did not change
  effect on Vmax: significantly reduced the Vmax value
From Vmax/Km, Lineweaver-Burk plot
  inhibition mechanism: non-competitive
